Test results published in PMC6212790.
The list shows a part of the results. At the low end of the ranking, values are background and their order means little.

Each sequence was assayed against T1, GST-Rok-C97-191 (UniProt O34857) (assay: protein binding microarray). Conditions: Rok is a gene silencer of Bacillus subtilis; high values mean tight binding; most listed sequences are background and not binding sites; double strand, one strand shown.
T1 sequence: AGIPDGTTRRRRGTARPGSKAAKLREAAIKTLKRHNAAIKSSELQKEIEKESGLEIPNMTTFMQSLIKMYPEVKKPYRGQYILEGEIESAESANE
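Note: rank score from −0.5 (least bound) to 0.5 (best bound).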

Sequence	binding signal
ATTTAAAG	-0.0376 E-score
AGTACGTG	0.101 E-score
GGAGACCA	-0.0113 E-score
AATTCTCA	0.0734 E-score
GGCTTTCA	-0.292 E-score
CTAGATTC	0.166 E-score
CGTACAAG	-0.00507 E-score
GCCTAACA	-0.0272 E-score
CTTCTACA	0.273 E-score
AGGGCGGA	-0.315 E-score
CGCGCCCC	-0.341 E-score
ACGTGTGA	-0.16 E-score
GACCTTAA	0.0334 E-score
ACCTACTC	0.0493 E-score
CTCCTCTC	-0.174 E-score
TGGCTAAA	0.112 E-score
GACAGGGA	-0.0489 E-score
GGTGAGAC	-0.087 E-score
GGAACGGA	-0.249 E-score
GGAGTAAA	0.000261 E-score
AAGTTAGC	0.139 E-score
CTTTGTCC	-0.101 E-score
CAATCATC	-0.103 E-score
GAGTTCGC	-0.172 E-score
ACTATAAG	0.249 E-score

Sequence	binding signal
CGCGCTAG	0.0524 E-score
TATAACCA	0.293 E-score
CATGTCTC	-0.0561 E-score
AAACCTCT	0.121 E-score
AACGACGG	-0.0673 E-score
AGCAGGGG	-0.19 E-score
AGGTTTGA	0.00877 E-score
AAACCGCG	-0.0204 E-score
ACTCATAA	0.00776 E-score
GGGATCGA	-0.163 E-score
AAGAGGTG	-0.0835 E-score
CCTTACCG	-0.103 E-score
GATCGTAC	0.1 E-score
ACCCATGC	-0.182 E-score
CACCGATG	-0.0652 E-score
CGACGCCC	-0.24 E-score
CCGCGACA	-0.149 E-score
TCTCGAGA	0.0362 E-score
AAGAGCCC	-0.31 E-score
GACAAATC	-0.0545 E-score
CGCGGGCA	-0.256 E-score
CAAGGTTC	-0.111 E-score
ACACTAAG	-0.14 E-score
CGGTACGA	-0.195 E-score
CAAATCGA	0.131 E-score

Sequence	binding signal
ACTCCAAT	-0.0489 E-score
ATCCAAGG	-0.138 E-score
ACCAGTAG	0.259 E-score
ACTGCTCC	-0.00368 E-score
AGAAGTTG	0.0563 E-score
AGCGCAGA	-0.067 E-score
AGAAATCG	-0.0981 E-score
ATGTGAAA	0.119 E-score
AAGATTCG	-0.0808 E-score
ATCTCTAA	0.106 E-score
AAGCGATG	-0.0686 E-score
GATGTACA	0.29 E-score
CACTCATG	-0.324 E-score
GAACAAGA	-0.0434 E-score
AACTATCA	0.369 E-score
AGTCGAAT	-0.159 E-score
CTGCCTTC	-0.104 E-score
CCCAACGG	-0.186 E-score
GTAAGAGA	-0.0585 E-score
GGCTGTAA	0.0224 E-score
CCCTGCGG	-0.367 E-score
CGGAGAGA	-0.168 E-score
ACGGCTAG	0.0611 E-score
GAGTATAC	0.184 E-score
AATCCACA	0.0662 E-score

Sequence	binding signal
ACCGTTGG	-0.173 E-score
AATCCGAC	-0.0946 E-score
AAACTGGT	0.0422 E-score
AGAAGCCT	-0.183 E-score
GTGGTAAC	0.142 E-score
ACAAGGTC	-0.191 E-score
GATAGCAC	0.0324 E-score
ATTTGGCA	0.0819 E-score
CTCCTTTA	-0.215 E-score
GACTAACA	-0.122 E-score
GAGTCCAC	-0.309 E-score
TGCTTCCA	-0.238 E-score
AGCTCAAG	0.109 E-score
CGAACAAC	-0.0735 E-score
CTGAACTA	0.148 E-score
CATTAATC	0.11 E-score
CGACCCCC	-0.233 E-score
ACTGTCGC	-0.0494 E-score
GAGTTGGA	-0.115 E-score
CGTGCGAC	-0.132 E-score
CGGTCTAC	-0.0738 E-score
ATTCCTCC	0.0246 E-score
AAGGACAT	-0.097 E-score
ACCCTCGG	-0.306 E-score
TTCAAAAA	-0.0543 E-score

Sequence	binding signal
CGTCATGA	-0.14 E-score
GAGGCTGA	-0.165 E-score
ATATCTGC	0.0868 E-score
ACATCTAC	0.23 E-score
CTTAGATC	0.0963 E-score
CATATTTA	0.282 E-score
CCCTGGTA	-0.0735 E-score
ATCCGGTA	0.148 E-score
CATTTGAA	-0.0649 E-score
ATGCAACC	0.0833 E-score
CACACCCC	-0.353 E-score
CCGCTTAC	-0.0832 E-score
CTTATATC	0.117 E-score
GCGGTTAC	-0.314 E-score
AGCTGCCT	-0.175 E-score
CAGCTTCC	-0.21 E-score
GGGGTACA	0.0482 E-score
GCTGTATA	0.0861 E-score
ACCCAGCC	-0.0986 E-score
GATTCCTA	0.241 E-score
CAGATAAC	0.0674 E-score
CACTCTGC	-0.276 E-score
GATTTTTA	0.162 E-score
ACCCATAG	0.084 E-score
AGCGCAAG	-0.0906 E-score

Sequence	binding signal
AGTAATAC	0.274 E-score
CGTCCGAG	-0.0967 E-score
TAATGACA	0.16 E-score
ACCGTTAG	-0.0316 E-score
AAATCAAA	0.0333 E-score
AGACATAG	0.0271 E-score
CAGTGCGG	-0.157 E-score
CAGAATGA	0.0723 E-score
CCCGCAGA	-0.219 E-score
GGGGAGTA	-0.201 E-score
CGGCGCTA	-0.109 E-score
GCGTAACC	-0.145 E-score
CCGACCGG	-0.318 E-score
AAAGGTAA	-0.091 E-score
ATGAGCAG	-0.0187 E-score
CTCTAAAA	-0.112 E-score
GCCGGGCC	-0.326 E-score
CGCAGTAC	-0.122 E-score
TCGCTCCA	-0.073 E-score
CTACCGTC	0.202 E-score
AAACCTTG	-0.0382 E-score
CACGGGTA	-0.0689 E-score
AGAGAAAA	0.026 E-score
AGCTCACA	0.0609 E-score
TCATTACA	0.15 E-score

Sequence	binding signal
CCTGGAGA	-0.22 E-score
CTAGCCGA	-0.229 E-score
TAGCTCCA	0.119 E-score
GAAGAGTA	0.226 E-score
ATGGTGAC	-0.0305 E-score
ACTCGACC	-0.018 E-score
AGATCGGG	-0.11 E-score
CTTACATC	-0.011 E-score
AACTATGT	0.25 E-score
GCACCGCA	-0.0601 E-score
ACCCCTGG	-0.255 E-score
CTCCCAAA	-0.207 E-score
GGCAGCCA	-0.149 E-score
ACTGGTAC	0.211 E-score
CTTGAACA	-0.143 E-score
AACGGTAA	0.154 E-score
GGTCACAC	-0.261 E-score
CGTGAACG	-0.0619 E-score
GTAAAGCA	-0.0828 E-score
CTGAGGGC	-0.382 E-score
GCCAGCAC	-0.0682 E-score
AATTTGCT	0.107 E-score
